# Test results: the supplement of paper PMC8728848
# Some of the results follow.
# Tests used:
# Experiment in all cases: glycan array binding signal (z-score within array); higher = stronger binding
# Conditions in all cases: glycan notation: IUPAC condensed, linker removed
# [1] = target: Gal(b1-4)Glc
# Procedure, shortened: (§1)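 From the Consortium for Functional Glycomics database, 3228 arrays were curated, keeping only those whose protein sequence was available. Binding is given as a within-array Z-score averaged across arrays sharing a protein sequence and across linkers. Negative Z-scores can be read as non-binding.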
# [2] = target: Gal(b1-4)Glc6S
# Procedure, shortened: as §1
# [3] = target: Gal(b1-4)GlcNAc
# Procedure, shortened: as §1
# [4] = target: Gal(b1-4)GlcNAc(a1-6)Gal(b1-4)GlcNAc
# Procedure, shortened: as §1
# [5] = target: Gal(b1-4)GlcNAc(b1-2)Man
# Procedure, shortened: as §1
# [6] = target: Gal(b1-4)GlcNAc(b1-2)Man(a1-3)Man(b1-4)GlcNAc(b1-4)GlcNAc
# Procedure, shortened: as §1
# [7] = target: Gal(b1-4)GlcNAc(b1-2)Man(a1-3)[Gal(b1-4)GlcNAc(b1-2)Man(a1-6)]Man(b1-4)GlcNAc(b1-4)GlcNAc
# Procedure, shortened: as §1
# [8] = target: Gal(b1-4)GlcNAc(b1-2)Man(a1-3)[Gal(b1-4)GlcNAc(b1-2)Man(a1-6)]Man(b1-4)GlcNAc(b1-4)[Fuc(a1-6)]GlcNAc
# Procedure, shortened: as §1
# [9] = target: Gal(b1-4)GlcNAc(b1-2)Man(a1-3)[Gal(b1-4)GlcNAc(b1-2)Man(a1-6)][Gal(b1-4)GlcNAc(b1-4)]Man(b1-4)GlcNAc(b1-4)[Fuc(a1-6)]GlcNAc
# Procedure, shortened: as §1
# [10] = target: Gal(b1-4)GlcNAc(b1-2)Man(a1-3)[Gal(b1-4)GlcNAc(b1-2)Man(a1-6)][GlcNAc(b1-4)]Man(b1-4)GlcNAc(b1-4)[Fuc(a1-6)]GlcNAc
# Procedure, shortened: as §1
# [11] = target: Gal(b1-4)GlcNAc(b1-2)Man(a1-3)[GlcNAc(b1-2)Man(a1-6)]Man(b1-4)GlcNAc(b1-4)GlcNAc
# Procedure, shortened: as §1
# [12] = target: Gal(b1-4)GlcNAc(b1-2)Man(a1-3)[GlcNAc(b1-4)][Gal(b1-4)GlcNAc(b1-2)Man(a1-6)]Man(b1-4)GlcNAc(b1-4)GlcNAc
# Procedure, shortened: as §1
# [13] = target: Gal(b1-4)GlcNAc(b1-2)Man(a1-3)[Man(a1-6)]Man(b1-4)GlcNAc(b1-4)GlcNAc
# Procedure, shortened: as §1
# [14] = target: Gal(b1-4)GlcNAc(b1-2)Man(a1-6)Man(b1-4)GlcNAc(b1-4)GlcNAc
# Procedure, shortened: as §1
# [15] = target: Gal(b1-4)GlcNAc(b1-2)Man(a1-6)[GlcNAc(b1-2)Man(a1-3)]Man(b1-4)GlcNAc(b1-4)GlcNAc
# Procedure, shortened: as §1
# [16] = target: Gal(b1-4)GlcNAc(b1-2)Man(a1-6)[Man(a1-3)]Man(b1-4)GlcNAc(b1-4)GlcNAc
# Procedure, shortened: as §1
# [17] = target: Gal(b1-4)GlcNAc(b1-2)[Gal(b1-4)GlcNAc(b1-4)]Man(a1-3)[Gal(b1-4)GlcNAc(b1-2)Man(a1-6)]Man(b1-4)GlcNAc(b1-4)GlcNAc
# Procedure, shortened: as §1
# [18] = target: Gal(b1-4)GlcNAc(b1-2)[Gal(b1-4)GlcNAc(b1-4)]Man(a1-3)[Gal(b1-4)GlcNAc(b1-2)[Gal(b1-4)GlcNAc(b1-6)]Man(a1-6)]Man(b1-4)GlcNAc(b1-4)GlcNAc
# Procedure, shortened: as §1
# [19] = target: Gal(b1-4)GlcNAc(b1-2)[Gal(b1-4)GlcNAc(b1-4)]Man(a1-3)[GlcNAc(b1-4)][Gal(b1-4)GlcNAc(b1-2)Man(a1-6)]Man(b1-4)GlcNAc(b1-4)GlcNAc
# Procedure, shortened: as §1
# [20] = target: Gal(b1-4)GlcNAc(b1-2)[Gal(b1-4)GlcNAc(b1-4)]Man(a1-3)[GlcNAc(b1-4)][Gal(b1-4)GlcNAc(b1-2)[Gal(b1-4)GlcNAc(b1-6)]Man(a1-6)]Man(b1-4)GlcNAc(b1-4)GlcNAc
# Procedure, shortened: as §1
# [21] = target: Gal(b1-4)GlcNAc(b1-2)[Gal(b1-4)GlcNAc(b1-6)]Man(a1-6)[Gal(b1-4)GlcNAc(b1-2)Man(a1-3)]Man(b1-4)GlcNAc(b1-4)GlcNAc
# Procedure, shortened: as §1
# [22] = target: Gal(b1-4)GlcNAc(b1-2)[Gal(b1-4)GlcNAc(b1-6)]Man(a1-6)[Gal(b1-4)GlcNAc(b1-2)Man(a1-3)]Man(b1-4)GlcNAc(b1-4)[Fuc(a1-6)]GlcNAc
# Procedure, shortened: as §1
binder,measurement,setting,value
EULS2 M4 (Oryza sativa) (protein) MVYCRANPNYAMTARNGAVVLAPANPKDEYQHWIKDMRWSTSIKDEEGYPAFALVNKATGQAIKHSLGQSHPVRLVPYNPEVMDESVLWTESRDVGNGFRCIRMVNNIYLNFDAFHGDKYHGGVRDGTDIVLWKWCEGDSLRWKIQPYYILEQKLISEEDLNSAVDHHHHHH,glycan array binding signal (z-score),[1],-0.232
same,glycan array binding signal (z-score),[2],-0.287
same,glycan array binding signal (z-score),[3],0.042
same,glycan array binding signal (z-score),[4],-0.074
same,glycan array binding signal (z-score),[5],-0.202
same,glycan array binding signal (z-score),[6],2.57
same,glycan array binding signal (z-score),[7],-0.36
same,glycan array binding signal (z-score),[8],-0.159
same,glycan array binding signal (z-score),[9],0.055
same,glycan array binding signal (z-score),[10],-0.382
same,glycan array binding signal (z-score),[11],-0.144
same,glycan array binding signal (z-score),[12],-0.477
same,glycan array binding signal (z-score),[13],7.18
same,glycan array binding signal (z-score),[14],-0.292
same,glycan array binding signal (z-score),[15],-0.606
same,glycan array binding signal (z-score),[16],-0.455
same,glycan array binding signal (z-score),[17],-0.586
same,glycan array binding signal (z-score),[18],-0.546
same,glycan array binding signal (z-score),[19],-0.641
same,glycan array binding signal (z-score),[20],-0.236
same,glycan array binding signal (z-score),[21],-0.498
same,glycan array binding signal (z-score),[22],0.327
